Results taken from PubChem BioAssay AID651597 (National Center for Advancing Translational Sciences (NCATS), 2012).
Out of some 1,100 compounds screened, about 390 (35%) were called active. The shares of active, inactive and inconclusive entries below differ from those in the screen. Calls follow the shape of the dose curve; as a rule, active = well fitted inhibition curve with a large enough effect; inconclusive = small, poorly fitted or top-dose-only effect; inactive = flat fitted curve, though single readings scatter. A potency beside an inconclusive call is a rough fit, not a confirmed value.

Biological target: Luciferin 4-monooxygenase (Photinus pyralis) (UniProt P08659)
Assay: qHTS of Nrf2 Activators: Hit Validation in Secondary FLuc Assay; also: nearly all actives have a fitted effect of over 65% in size
Details: firefly luciferase inhibition counter-screen, luminescence; series mostly up to 57.5 µM; activity, negative = inhibition: at the top concentration
Description: Many diseases have some form of oxidative stress injury and ties to inflammation, causing a host of problems for the patient. The antioxidant response element (ARE) plays an important role in alleviating the harmful effects of oxidative stress. The antioxidant response element (ARE) is a transcriptional regulatory element involved in the activation of genes coding for a number of antioxidant proteins and detoxifying enzymes. These enzymes work in concert to protect tissues from oxidative insults and chemical toxicities in human hepatocytes and immune cells. The protective effects of ARE activation are primarily triggered through Nrf2 (NF-E2-related factor) binding to and activating AREs. It is known that Nrf2 controls the production of over 250 antioxidant and detoxification proteins (Hu et al., 2006), thereby protecting tissues by increasing cellular antioxidant content and suppressing inflammatory signaling pathways. The transcription factor Nrf2 is a central link between oxidative chemicals, such as phenolic antioxidants and electrophilic compounds, and the activation of ARE. Nrf2 levels are constitutively low as a consequence of its interaction with Keap1, which targets its degradation (Zipper and Mulcahy, 2002). Electrophiles react with key cysteine residues in Keap1, releasing Nrf2 and allowing its translocation to the nucleus. Once within the nucleus, Nrf2 complexes with coactivators such as p300, and binds to the AREs to induce gene transcription of cytoprotective enzymes, resulting in the prevention of toxicity. Activation of Nrf2 protects tissues by increasing cellular antioxidant content and suppressing inflammatory signaling pathways. Identifying novel and potent Nrf2 activators by using the AREc32 cell line to detect ARE activation by small molecules will lead to the identification and development of probes to study protective pathways in multiple tissues. These specific probes are essential to study the ARE pathway, and eventually to determine whether this pathway does activate genes that could protect against a host of diseases, including cardiovascular diseases, obesity, diabetes, Alzheimer's, and Parkinson's disease.
This project's aim is to identify novel and potent Nrf2 activators by using the AREc32 cell line to detect ARE activation by small molecules, which will lead to the identification and development of probes to study the ARE pathway. In this counter assay, we aim to identify false positive as identified from this primary assay using an FLuc assay with an inhibiting read-out.
NIH Chemical Genomics Center [NCGC]
NIH Molecular Libraries Probe Centers Network [MLPCN]
Assay Submitter (PI): Curtis Klaassen, University of Kansas Medical Center
Assess whether an activator in the primary assay potentially causes such activation by inhibitor-induced stabilization of the firefly luciferase reporter enzyme by determining whether it inhibits firefly luciferase in the presence of Km concentrations of its substrates (ATP and D-luciferin).
% is scaled to controls: 0 for no effect and ±100 for the full control effect; potency is read from the fitted curve at half-maximal effect; tags tell the direction and shape of the fitted curve.

SMILES	Potency	activity, negative = inhibition
CC(=O)Nc1ccc(O)c(-c2nc3ccccc3s2)c1	active: 2.13 µM	
O/N=C/c1ccc2cccc(OCc3ccccc3)c2n1		inactive: -3.72%
O=C(Nc1ccccn1)Nc1ccccc1[N+](=O)[O-]	inconclusive: 8.49 µM [inhibitor, partial curve]	
O=c1[nH]c(SCc2cccc([N+](=O)[O-])c2)nc2[nH]ncc12	inconclusive: 33.8 µM [inhibitor, single point]	
C/C(=N/NC(=O)CNC(=O)/C=C/c1ccco1)c1ccc(Cl)cc1	inconclusive: 37.9 µM [inhibitor, single point]	
O=C(NCc1ccco1)c1cc(=O)c2ccccc2o1		inactive: 0.0894%
Cc1cc(-c2sccc2C)nc(-n2cccc2)n1	inconclusive: 37.9 µM [inhibitor, single point]	
COc1ccc(NC(=O)c2cc(-c3ccco3)nc3ccccc23)cn1	inconclusive: 10.7 µM [inhibitor, partial curve]	
Cc1cc(=O)oc2cc(NC(=O)c3ccccc3Cl)ccc12	active: 5.36 µM	
O=C(Nc1ccccc1C(=O)NCCc1ccccc1)c1ccco1	inconclusive: 8.49 µM [inhibitor, partial curve]	
NC(=O)c1c(NC(=O)c2ccc([N+](=O)[O-])o2)sc2c1CCCC2	inconclusive: 1.69 µM [inhibitor, full curve]	
Nc1c(Cl)c(Cl)nc(C(=O)N/N=C/c2ccco2)c1Cl		inactive: -5.24%
Cc1ccc(-c2cc(C(F)(F)F)c(C#N)c(SCCC#N)n2)o1	inconclusive: 26.9 µM [inhibitor, single point]	
O=C(N/N=C/C=C/c1ccco1)c1cnccn1	inconclusive: 23.9 µM [inhibitor, single point]	
CS(=O)(=O)Nc1ccc(C(=O)Nc2cccc([N+](=O)[O-])c2)cc1	inconclusive: 23.9 µM [inhibitor, single point]	
CCOC(=O)c1ccc(NC(=O)c2nc(S(=O)(=O)Cc3ccccc3)ncc2Cl)cc1	active: 1.69 µM	
C=C1CC(COc2cc(=O)oc3ccccc23)(c2ccccc2)OC1=O (stereo unspecified)	inconclusive: 12 µM [inhibitor, partial curve]	
O=C(CN1CC(=O)Oc2ccccc21)OCC(=O)c1ccc(F)cc1		inactive: -0.826%
O=CNc1c(Cl)cc2c(c1Cl)Cc1cc([N+](=O)[O-])ccc1-2	inconclusive: 23.9 µM [inhibitor, single point]	
O=S(=O)(c1ccc(F)cc1)c1snnc1-c1ccccc1		inactive: -23.6%
c1ccc(CNc2nc(NCc3ccco3)nc(N3CCOCC3)n2)cc1		inactive: 5.72%
